Measurements: PubChem BioAssay AID624417 (National Center for Advancing Translational Sciences (NCATS), 2012)
Among all 410,000 compounds or so, about 6,400 (1.6%) were called active. The inconclusive results got no clear call from the source; some entries with a clear call stand among them for comparison. The call rests on the fitted dose curve; in most records, active means well fitted inhibition curve with a large enough effect; inconclusive means small, poorly fitted or top-dose-only effect; inactive means no such curve, though single readings can be large or run the other way. No potency is given beside an inconclusive call; the fits are too rough.

What follows are compounds tested against Glucagon-like peptide 1 receptor (Homo sapiens) (UniProt P43220) (assay: qHTS of GLP-1 Receptor Inverse Agonists (Inhibition Mode)). Conditions: HEK293 GLP-1R CRE-luciferase, luminescence, 24 h, GLP-1R form is constitutively active; series mostly up to 38.3 µM.
UniProt P43220, sequence (P43220 whole entry, looked up): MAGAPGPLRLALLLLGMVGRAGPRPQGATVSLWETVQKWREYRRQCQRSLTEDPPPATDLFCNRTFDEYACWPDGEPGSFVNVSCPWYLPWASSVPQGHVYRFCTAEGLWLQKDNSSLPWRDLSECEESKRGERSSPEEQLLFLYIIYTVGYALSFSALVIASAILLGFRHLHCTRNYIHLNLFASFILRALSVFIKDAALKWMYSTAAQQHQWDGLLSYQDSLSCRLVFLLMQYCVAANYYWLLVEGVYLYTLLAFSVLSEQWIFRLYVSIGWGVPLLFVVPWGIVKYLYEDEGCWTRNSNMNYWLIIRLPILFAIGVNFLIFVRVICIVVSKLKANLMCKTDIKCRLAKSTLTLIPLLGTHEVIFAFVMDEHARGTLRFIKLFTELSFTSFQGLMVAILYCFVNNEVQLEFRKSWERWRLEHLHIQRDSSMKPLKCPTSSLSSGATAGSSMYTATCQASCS
In short: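 Stable HEK293 clone (constitutively active GLP-1R + cAMP-response luciferase); 200 cells/uL plated, 12 h pre-culture, compound 24 hr, 37 deg C/5% CO2; detection reagent 12 min RT; luminescence.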
Further: nearly all actives have a fitted effect of over 55% in size.
Potency means the concentration at half of the fitted maximal effect; tags describe the fitted curve by direction and shape.

Structure (SMILES) | Potency
COc1ccc(NC(=O)C2CCN(S(=O)(=O)c3ccc4[nH]c(=O)ccc4c3)CC2)c(OC)c1 | inactive
N#Cc1ccc(COC(=O)c2ccc(N3CCCC3)c([N+](=O)[O-])c2)cc1 | inconclusive [inhibitor, single point]
CC(NC(=S)NNS(=O)(=O)c1cccc([N+](=O)[O-])c1)c1ccccc1 (centres undefined) | inactive
CC(C)N1CCc2c(sc(NC(=O)c3ccc(C(=O)c4ccccc4)cc3)c2C(N)=O)C1 | inconclusive [inhibitor, single point]
CC(=O)Nc1ccc(NC(=O)C(C)OC(=O)c2ccc(S(=O)(=O)N3CCCCCC3)cc2)cc1 (centres undefined) | inconclusive [inhibitor, single point]
O=C1Nc2cccnc2N(C(=O)CCl)c2ccccc21 | inconclusive [inhibitor, single point]
CC(C)CC(N)c1csc(NC(=O)C(c2ccccc2)c2ccccc2)n1 (centres undefined) | inconclusive [inhibitor, single point]
COC(=O)C(C)Oc1cc(C)ccc1COc1ccc(-n2nc(C)n(C(F)F)c2=O)cc1 (centres undefined) | inconclusive [inhibitor, single point]
CC(C)(C)c1ccccc1OCCOCCSc1ncccn1 | inconclusive [inhibitor, single point]
COc1cccc(NC(=O)C2C3CCC4C(CCC32)C4(Cl)Cl)c1 (centres undefined) | inconclusive [inhibitor, partial curve]
CC(C)c1ccccc1NS(=O)(=O)c1cccs1 | inconclusive [inhibitor, partial curve, poor fit]
CCn1c(C(=O)NC(C)c2ccc3c(c2)OCCO3)cc2sccc21 (centres undefined) | inconclusive [inhibitor, single point]
CCCCSCCCNC(=O)CN1C(=O)c2cccnc2Oc2ccc(Cl)cc21 | inactive
CC1CCN(CC(O)COCCC23CC4CC(CC(C4)C2)C3)CC1 (centres undefined) | inconclusive [inhibitor, single point]
c1ccc2c(N3CCOCC3)nc(N3CCOCC3)nc2c1 | inactive
CCCCNC(=O)c1onc(CSc2cccc(OC)c2)c1C(=O)NCCCC | inconclusive [inhibitor, partial curve, poor fit]
CCN(CC)C(=O)C1CC(c2ccc(OC)cc2)=NO1 (centres undefined) | inactive
Cc1c(C(=O)NCCC2=CCCCC2)sc2ncnc(N3CCCCC3C)c12 (centres undefined) | inconclusive [inhibitor, partial curve, poor fit]
CCC(=O)N(CCC(c1ccccc1)c1ccco1)Cc1cccs1 (centres undefined) | inconclusive [inhibitor, single point]
CCOC(=O)C1=CN(Cc2cccc(F)c2)S(=O)(=O)N(CC)C1c1ccc(C(F)(F)F)cc1 (centres undefined) | inconclusive [inhibitor, partial curve, poor fit]
COc1ccc(OC)c(NC(=O)c2cc3c(=O)oc4ccccc4c3s2)c1 | inactive
Cc1coc(C)c1C(=O)CC1(O)C(=O)Nc2cc(Cl)cc(Cl)c21 (centres undefined) | inconclusive [inhibitor, partial curve, poor fit]

Structure (SMILES) | Potency
Cc1ccccc1-c1nc(CS(=O)(=O)CC(=O)N(C)C2CCCCC2)c(C)o1 | inconclusive [inhibitor, single point]
CCc1cc(Cn2nc(-c3ccccc3)cc2C(=O)NCc2cccc(C(F)(F)F)c2)on1 | inconclusive [inhibitor, partial curve, poor fit]
O=C(NCC(c1cccnc1)N1CCN(c2ccccc2F)CC1)c1cccc(Cl)c1 (centres undefined) | inconclusive [inhibitor, partial curve, poor fit]
Cn1cc([N+](=O)[O-])c(C(=O)Nc2ccc3nc(-c4ccccc4)[nH]c3c2)n1 | inactive
CN(C)C(CNC(=O)CSc1nc2sc3c(c2c(=O)n1C)CCCC3)c1ccccc1 (centres undefined) | inconclusive [inhibitor, single point]
S=c1c2c(nc3nc[nH]n13)CCC2 | inconclusive [inhibitor, full curve]
O=S1(=O)c2c(Oc3cccc4ccccc34)cccc2OC(COCc2ccccc2)CN1C1CCCC1 (centres undefined) | inconclusive [inhibitor, full curve, poor fit]
CCC1CCCCN1S(=O)(=O)c1ccc([N+](=O)[O-])cc1 (centres undefined) | inconclusive [inhibitor, partial curve, poor fit]
CCn1c2ccccc2c2cc(CN3CCN(C(=O)c4ccco4)CC3)ccc21 | inconclusive [inhibitor, single point]
CC(C)CCN1CC(=O)N2[C@@H](Cc3c([nH]c4ccccc34)C2(C)C)C1=O | inconclusive [inhibitor, partial curve, poor fit]
OC(c1ccccc1)(c1nc(-c2ccc(F)c(Cl)c2)cs1)C(F)(F)F (centres undefined) | inconclusive [inhibitor, single point]
CCN(CC)S(=O)(=O)c1cccc(S(=O)(=O)c2cccc(S(=O)(=O)N(CC)CC)c2)c1 | inconclusive [inhibitor, partial curve, poor fit]
CC(C)N(CCn1cnc2c([nH]c3ccccc32)c1=O)C(C)C | inactive
Clc1ccccc1-c1cc(COc2ccc3ccccc3c2)no1 | inconclusive [inhibitor, single point]
CCc1ccc(CNC(=O)Cc2ccc(NC(=O)N3CCSc4ncccc43)cc2)cc1 | inactive
O=C(CN1C(=O)C2CC=CCC2C1=O)Nc1ccc(OC(F)(F)F)cc1 (centres undefined) | inconclusive [inhibitor, single point]
C=CCn1c(SCC(=O)Nc2c(C)n(C)n(-c3ccccc3)c2=O)nc2scc(-c3ccccc3)c2c1=O | inconclusive [inhibitor, partial curve, poor fit]
CN(Cc1c(F)cccc1Cl)C(=O)c1ccc2ccccc2n1 | inconclusive [inhibitor, single point]
Cc1nc(-c2ccccc2)sc1C(=O)CSc1ccc(Cl)cc1 | inconclusive [inhibitor, partial curve, poor fit]
CCn1ccnc1CNC(=O)c1ccc2oc(CCCc3ccccc3)nc2c1 | inconclusive [inhibitor, partial curve, poor fit]
CNC(=S)Nc1ccc([N+](=O)[O-])cc1C | inactive
CCN(CC)C(=O)CSc1nc(N)c2c3c(sc2n1)CC(C)CC3 (centres undefined) | inconclusive [inhibitor, single point]

Structure (SMILES) | Potency
CCOC(=O)c1c(C)[nH]c(C(=O)N/N=C\c2ccccc2Cl)c1C | inconclusive [inhibitor, partial curve, poor fit]
COc1ccc(Nc2nc(NCc3ccco3)nc(N/N=C/c3ccc(O)cc3)n2)cc1 | inactive
Cc1ccc(NC(=O)c2cnn3c(C(F)F)cc(-c4ccccc4)nc23)c(C)c1 | inactive
Cc1ccc(Cc2c(-c3cccc(Br)c3)nc3c(Cl)cc(C(F)(F)F)cn23)cc1 | inconclusive [inhibitor, partial curve, poor fit]
COCCN(CC(=O)Nc1cccc(C)c1C)C(=O)C1(c2ccc(Cl)cc2)CCC1 | inconclusive [inhibitor, single point]
Cc1ccccc1-c1ccc(CN2CCN(C)C(CCO)C2)cc1 (centres undefined) | inconclusive [inhibitor, partial curve, poor fit]
CCc1nc2ccc(C(=O)Nc3ccc(NC(C)=O)cc3)cn2c1N(CCC(C)C)CCN(C)C | inconclusive [inhibitor, single point]
N=C1/C(=C/c2ccc(OCc3ccccc3)cc2)C(=O)N=C2SC(CC(=O)N3CCOCC3)=NN12 | inactive
[O-]/[N+](=C/c1cccnc1)c1ccc(Br)cc1 | inactive
COc1ccc(N2CCN(C(=O)CCc3c(C)nn(-c4ccc(N5CCCC5)nn4)c3C)CC2)cc1 | inactive
CCOc1ccc(OCC(O)CN2CCN(S(=O)(=O)c3cccc(C(F)(F)F)c3)CC2)cc1 (centres undefined) | inconclusive [inhibitor, single point]
CC1(C(=O)OCC(=O)N2c3ccccc3Sc3ccccc32)CC1(Cl)Cl (centres undefined) | active: 11.2 µM
COc1ccc2ccccc2c1-c1sc(Nc2ccccc2)n[n+]1-c1ccc(F)cc1 | inconclusive [inhibitor, single point]
COC(=O)c1[nH]c2ccc(C)cc2c1NC(=O)CN1CCCc2ccccc21 | inconclusive [inhibitor, single point]
COc1ccc(/C(C)=N/Nc2nccnc2Cl)cc1 | inconclusive [inhibitor, single point]
Cc1ccccc1S(=O)(=O)Cc1ccc(C(=O)NCCCN(C)Cc2ccccc2)o1 | inconclusive [inhibitor, single point]
O=C(Cn1cc(Cl)c([N+](=O)[O-])n1)NCCC1=CCCCC1 | inconclusive [inhibitor, single point]
O=C(Nc1ccnn1C1CCN(Cc2cc(Cl)ccc2O)CC1)C1CC1 | inconclusive [inhibitor, partial curve, poor fit]
CCOC(=O)CNC(c1ccccc1)c1cc(Br)ccc1NC(=O)CCN1CCOCC1 (centres undefined) | inactive
CCOC(=O)c1ccc(NC(=O)CCCc2nc(-c3ccccc3Cl)no2)cc1 | inconclusive [inhibitor, partial curve, poor fit]
